± gives the standard deviation of the averaged measurements. The list shows a part of the results.
Test system: PfAP2-I AP2 domain 3 (GST-tagged)
Assay: gcPBM binding intensity (ln(normalized median fluorescence intensity)); higher = stronger DNA binding
Outline: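 Binding intensity is the highest Masliner-normalised natural-log median intensity over replicate spots in either probe orientation. To obtain it, GST-tagged P. falciparum DNA-binding domains made in E. coli were incubated for 1 h on an Agilent 4 × 180k array of primer-extended double-stranded 36-bp intergenic genomic probes plus negative controls. Detection used Alexa488 anti-GST antibody with scanning at 488 nm.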

| Sequence | gcPBM binding intensity (ln) |
| --- | --- |
| AAAGTAAAAGAAAGCACACACACATGTATATATGTA [CACACA_site3857] | 7.87 ± 0.48 |
| GATGGATTTATTTAAAGTACATATTTAAAAAACTGT [XGTACX_site7567] | 7.7 ± 0.49 |
| TTTCTCCCATTTTTTAGTACACAAAATATATATGTA [XGTACX_site7218] | 8.42 ± 0.48 |
| AAAAAAAAAAAATATACACACACATATATATATATA [CACACA_site9123] | 9.46 ± 0.32 |
| AACAACAATTTCGTCATACACACATTCAGAATATAT [CACACA_site2371] | 7.91 ± 0.46 |
| AAAATTACTATATGAACACACATGATTAGATATATG [CACACA_site3083] | 7.63 ± 0.45 |
| TATATATATATATACACACACACCCTAAAAATATAT [CACACA_site1611] | 9.31 ± 0.27 |
| TGAAAGAATTAATTTTGTACATATAAAAATTTTATT [XGTACX_site8500] | 7.53 ± 0.4 |
| TTTTTATTTTTAAAGGCACACACATTTTTATTTTTA [CACACA_site8624] | 8.6 ± 0.25 |
| AAATGAAATTTGTATACACACAAATATATTTATATA [CACACA_site6525] | 7.53 ± 0.38 |
| TATTTGTGCCAAAAATGAAAAAGTTTGTATAAAACC [CACACA_negctrl_site1406] | 8 ± 0.63 |
| AATAAATAAATAATATAATGAAATTATAAAATGTGG [TGCATGCA_negctrl_site385] | 7.59 ± 0.45 |
| TGTATTAATAAAAATACACACATCATATTATAGAAA [CACACA_site7629] | 7.6 ± 0.61 |
| ATATATATATAAATATGTACATATATATATTATATA [XGTACX_site120] | 8.83 ± 0.057 |
| TATAAGATTATACAAAGTACATATAAATAATATATT [XGTACX_site1917] | 7.58 ± 0.39 |
| TGAAATAAAAAATATAGTACTCGTTCGTAACCAAAA [XGTACX_site413] | 7.66 ± 0.57 |
| ATGGGTTAAAAATGCACACAAAAAAATATACAGATA [CACACA_site4321] | 8.86 ± 0.057 |
| TTAAAAAAAGATTATACACACACATATATAAACATA [CACACA_site8136] | 7.63 ± 0.48 |
| TCCTCTTTTATTTTTACACACGCGTAAACATATATA [CACACA_site667] | 8.43 ± 0.39 |
| TATATTAAATAAAAAGTGCATGTCTCATAAGATGGA [GTGCAC_site9520] | 8.51 ± 0.39 |
| ATAAAATGTTAAGGGTGTACTTTACACATCTCCTAT [XGTACX_site4699] | 7.81 ± 0.4 |
| TATAAATAAAGCAGTACACACATTTATTTTAGATAC [CACACA_site7566] | 8.17 ± 0.21 |

| Sequence | gcPBM binding intensity (ln) |
| --- | --- |
| ATAGGGAATTTATGCACACAGTTAAGGGGGAAAATT [CACACA_site5183] | 9.85 ± 0.13 |
| TTTATACTATAATTATGTACTTATAAAAGGAATAAA [XGTACX_site8027] | 7.82 ± 0.27 |
| TATATAAATATACATTGTACTCAACATTTTCATTAA [XGTACX_site3690] | 7.72 ± 0.59 |
| ATAAACACATCTATATGTACATATATATATATATAC [XGTACX_site347] | 8 ± 0.42 |
| ATGTAAATACATATATGTACACAAATATATATATAT [XGTACX_site3537] | 9.27 ± 0.52 |
| AAGAAAAAATATATATATATATATATATATAATATG [TGCATGCA_negctrl_site417] | 8.53 ± 0.38 |
| TTATATTATTTTTATACATGCATTTCTATATATTTT [TGCATGCA_site164] | 8.59 ± 0.52 |
| ACATAATTAACAAATACACACACACCCACCCACAAA [CACACA_site8069] | 8.7 ± 0.69 |
| TTCAATTTTTTATGAACACACAAAAAAAAAAAAAAA [CACACA_site2533] | 8.01 ± 0.74 |
| ATATATAAGGATGTCACACATAAATATTAACACTAA [CACACA_site5101] | 7.71 ± 0.43 |
| TATTCATAATTTTAATGTACAAAATGGTTTGTAATA [XGTACX_site8493] | 7.46 ± 0.46 |
| TTGTAATTTATTCAAACACACAATTTGGACCTTTTT [CACACA_site1063] | 7.45 ± 0.51 |
| AAAGATAAATTAAAAAGTACATATTTATTCAATGTA [XGTACX_site8543] | 7.45 ± 0.33 |
| TATGATATATATAATACACACATATACATAAGATCT [CACACA_site1119] | 7.68 ± 0.49 |
| AATATATATATATTATCACACACTCACGTTTGACAA [CACACA_site8130] | 7.75 ± 0.51 |
| TAAAAAAAACGAACAAGTACACATAAAAAAAAATTA [XGTACX_site5982] | 7.75 ± 0.45 |
| ATTATATCATATATATGTACACATATATAACATGAT [XGTACX_site7] | 7.81 ± 0.28 |
| ATCCATCTTTTAATTTGTACTTATTCTTTTTTCTTT [XGTACX_site5299] | 8.12 ± 0.66 |
| ATATATATATGTAATAGTACATATGATAGTTTGTCA [XGTACX_site1545] | 9.15 |
| ATTAGTTTTATATATAGTACATATAATTTTGAAGGT [XGTACX_site7445] | 8.15 ± 0.42 |
| TGGGTGTAGAACAATTGTACTTTGTAAAAATATAAG [XGTACX_site8464] | 7.96 ± 0.45 |
| TTTTTTTTCAATGGTTGTACAAAGTAAAACAACAAA [XGTACX_site1582] | 7.98 ± 0.38 |
